# Among all 310,000 compounds or so, about 2,200 (0.71%) showed an effect of 50% or more. The effect is printed as a negative number. Some of the results follow.
# Molecular target: human ether-à-go-go-related gene (hERG) potassium channel (human, UniProt Q12809)
# Assay: primary screen, population patch clamp on CHO cells stably expressing hERG
# Sequence of human ether-à-go-go-related gene (hERG) potassium channel (Q12809 whole entry, looked up): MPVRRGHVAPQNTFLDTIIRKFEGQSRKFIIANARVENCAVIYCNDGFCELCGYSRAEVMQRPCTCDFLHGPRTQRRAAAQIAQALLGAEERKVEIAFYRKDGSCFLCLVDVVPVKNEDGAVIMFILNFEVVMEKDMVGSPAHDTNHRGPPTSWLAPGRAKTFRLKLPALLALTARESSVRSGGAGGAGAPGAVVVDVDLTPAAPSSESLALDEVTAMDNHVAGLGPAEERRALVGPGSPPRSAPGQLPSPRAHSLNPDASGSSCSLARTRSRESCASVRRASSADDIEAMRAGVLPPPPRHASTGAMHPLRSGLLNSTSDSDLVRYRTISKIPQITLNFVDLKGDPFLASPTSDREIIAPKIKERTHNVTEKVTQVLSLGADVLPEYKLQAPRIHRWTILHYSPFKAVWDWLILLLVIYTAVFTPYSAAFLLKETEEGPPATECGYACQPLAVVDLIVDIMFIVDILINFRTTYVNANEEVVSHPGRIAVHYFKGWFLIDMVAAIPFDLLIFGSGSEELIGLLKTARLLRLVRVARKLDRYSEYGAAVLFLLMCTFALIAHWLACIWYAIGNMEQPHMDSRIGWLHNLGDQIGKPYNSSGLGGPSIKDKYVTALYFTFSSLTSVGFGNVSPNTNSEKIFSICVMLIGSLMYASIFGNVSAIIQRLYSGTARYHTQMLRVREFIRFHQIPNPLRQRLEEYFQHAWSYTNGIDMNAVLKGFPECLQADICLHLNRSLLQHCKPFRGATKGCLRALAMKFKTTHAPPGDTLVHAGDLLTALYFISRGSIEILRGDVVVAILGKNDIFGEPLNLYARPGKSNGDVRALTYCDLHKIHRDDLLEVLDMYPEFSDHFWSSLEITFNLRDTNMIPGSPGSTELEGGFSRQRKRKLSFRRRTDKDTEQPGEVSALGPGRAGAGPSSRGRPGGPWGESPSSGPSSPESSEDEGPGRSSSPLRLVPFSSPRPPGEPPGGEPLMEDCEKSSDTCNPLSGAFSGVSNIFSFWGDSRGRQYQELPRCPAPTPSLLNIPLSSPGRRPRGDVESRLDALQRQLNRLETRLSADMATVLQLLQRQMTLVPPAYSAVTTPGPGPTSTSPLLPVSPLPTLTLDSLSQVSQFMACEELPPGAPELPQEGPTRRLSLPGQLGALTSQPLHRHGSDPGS
row,SMILES,"hERG current change (%, negative = inhibition) at 1uM"
1,CC1(C)OC(C(=O)NC2CCCCC2)C(C(=O)NC2CCCCC2)O1 (centres unmarked),15.4%
2,Cc1ccc(-n2nnnc2SCC(=O)N2CCc3ccccc3C2)cc1,0.769%
3,C/C(N)=C(/C#N)C(=O)CSc1nc2cc(Cl)ccc2c(=O)n1Cc1ccco1,9.63%
4,COc1ccccc1C1/C(=C(/O)c2ccc(C)cc2)C(=O)C(=O)N1CCN1CCOCC1 (centres unmarked),1.1%
5,Cc1ccc(S(=O)(=O)NC(CC(=O)NCC2CCCO2)c2ccccc2)cc1 (centres unmarked),19.1%
6,CC1CCN(c2ccc3nnc(CCC(=O)N4CCN(c5ccc(F)cc5)CC4)n3n2)CC1,-22.9%
7,CC(=O)Nc1ccccc1OC(=O)N1CCOCC1,15.8%
8,COc1ccccc1NS(=O)(=O)c1ccc2oc(SCC(C)=O)nc2c1,14.4%
9,COc1ccc(OCc2nnc(SC(C)C(=O)Nc3nccs3)n2-c2ccccc2)cc1 (centres unmarked),0.543%
10,c1ccc(-n2nnnc2NC2CCCCCC2)cc1,12.5%
11,CC(C)(C)c1ccc(S(=O)(=O)N2CCC(c3nc4ccc(Cl)cc4[nH]3)CC2)cc1,7.6%
12,COCCn1c(C)cc(C(=O)COC(=O)C23CC4CC(CC(O)(C4)C2)C3)c1C,7.62%
13,CCN(CC)c1ccc(/C=N/NC(=O)c2cccc(S(=O)(=O)N3CCOCC3)c2)c(O)c1,-2.6%
14,COc1cccc(CNC(=O)CN(c2ccc(C(C)C)cc2)S(=O)(=O)c2c(C)noc2C)c1,6.88%
15,N=C1SCC(=O)N1c1ccc(Cl)cc1,12.7%
16,O=C(O)/C=C/C(=O)c1ccc2c(c1)NC(=O)CO2,13.2%
17,Cc1cccc(NC(=O)CCc2nnc3ccc(N4CCC(C)CC4)nn23)n1,16.9%
18,Cc1ccc(/C=C2/C(=O)ON=C2c2ccccc2)o1,6.9%
19,NNC(=O)c1cccc(COc2ccc(Br)cc2)c1,-11%
20,CCC(C)c1ccc(NC(=O)CC(C)=O)cc1 (centres unmarked),4.37%
21,CCCc1nc2c(s1)CCc1onc(-c3ccc(OC)cc3)c1-2,4.97%
22,Cc1cc(C)c(S(=O)(=O)N2CCN(C(=O)c3cccs3)CC2)c(C)c1,5.5%
23,O=C(Cc1cccs1)NNC(=S)NCc1ccco1,8.62%

row,SMILES,"hERG current change (%, negative = inhibition) at 1uM"
1,CCc1ccc(NS(=O)(=O)c2ccc3c(c2)oc(=O)n3C)cc1,11.7%
2,CCOc1ccccc1/C=N/n1c(C2CCCCC2)n[nH]c1=S,15.1%
3,COc1cccc(CN2CCN(Cc3ccc4c(NC(C)=O)cccc4n3)CC2CCO)c1 (centres unmarked),6.22%
4,c1ccc2sc(N3CCNCC3)nc2c1,12.3%
5,COc1ccc(/C=C2/Sc3ccc(C(=O)N4CCOCC4)cc3NC2=O)cc1OC,25.5%
6,COc1ccc(N2C(=O)CC(N3CCN(S(=O)(=O)c4c(C)cc(C)cc4C)CC3)C2=O)cc1 (centres unmarked),-1.62%
7,CCOC(=O)Nc1cc(OCC)c(NC(=O)C2CC2)cc1OCC,9.61%
8,Cn1c(=O)c(=O)n(C)c2cc(S(=O)(=O)CCC(=O)Nc3cccc(C(F)(F)F)c3)ccc21,14.6%
9,O=C(NS(=O)(=O)c1ccc2c(c1)OCCO2)c1ccccc1,21.2%
10,CCCC(=O)Nc1nnc(-c2ccccc2)o1,11.7%
11,O=S(=O)(Cc1ccc(Cl)cc1)NCc1cccnc1,9.04%
12,Cl.O=C(OC[C@@H]1CCCN2CCCC[C@H]12)c1cc2ccccc2oc1=O,-14.5%
13,CS(=O)(=O)c1ccc(Cl)c(NC(=O)c2cccc(Br)c2)c1,2.54%
14,COc1ccc(Nc2ccc(C(N)=O)cc2[N+](=O)[O-])cc1,13.4%
15,Cc1cc(F)ccc1S(=O)(=O)Nc1ccc(O)c(Sc2ncn[nH]2)c1,20.6%
16,Fc1ccc(CNC(=S)Nc2ccc(OC(F)F)cc2)cc1,-2.84%
17,CN(C)/C=C1\N=C(c2ccccc2)OC1=O,11.2%
18,COc1ccc(C(=O)Nc2c(C)cc(C)cc2C)cc1OC,20.7%
19,N#Cc1c(N)n(-c2cccc(O)c2)c2nc3ccccc3nc12,-0.12%
20,CCOC(=O)C1CCN(CC(O)COc2ccc(C(C)(C)C)cc2)CC1.Cl (centres unmarked),-53.2%
21,COC(=O)C1CCN(C(=O)c2ccc(SC)cc2OC)CC1,1.02%
22,Cc1cc(C)n2nc(C(=O)NCc3ccco3)nc2n1,8.14%
23,C=CCn1c(=O)[nH]c2nc3cc(N=CN(C)C)c(C)cc3nc2c1=O,3.52%

row,SMILES,"hERG current change (%, negative = inhibition) at 1uM"
1,Cc1cccc(C)c1OCc1cc(C(=O)NCC2COCCO2)no1 (centres unmarked),5.54%
2,CCOC(=O)c1ccc(N=c2sc(C(=O)OC)cc(=O)n2CCCN2CCOCC2)cc1.Cl,7.48%
3,CC(C)C(=O)Nc1c(C(=O)c2ccc(F)cc2)oc2ccccc12,12.2%
4,COc1ccc(O)c(C(=O)c2cc(C#N)c(=O)n(-c3ccc(Cl)cc3)c2)c1,10.1%
5,COC(=O)c1ccc(SCc2cnc(Cl)s2)cc1,7.26%
6,COc1ccc(S(=O)(=O)N2CCOCC2)cc1NC(=O)CSc1n[nH]c(C(C)C)n1,17.4%
7,CCc1nnc(NC(=O)CSc2nnnn2-c2cccc(C(C)=O)c2)s1,14.3%
8,CS/C(Nc1cc(Cl)ccc1Cl)=C(/C#N)C(=O)c1ccco1,9.86%
9,Cc1ccc(C(=O)NCCCNc2ccc(C(F)(F)F)cc2[N+](=O)[O-])cc1,6.4%
10,CCOc1ccc(CN2CCN(Cc3ccon3)CC2CCO)cc1 (centres unmarked),-33.5%
11,O=C1CCc2cc(OCCCCc3nnnn3C3CCCCC3)ccc2N1,-46.5%
12,O=C(Nc1cccc(F)c1)c1cccnc1NCCc1ccccc1,9.68%
13,Cc1ccccc1Cn1c(=O)[nH]c2ccccc21,6.94%
14,COc1ccc(S(=O)(=O)N(CC(=O)NCC2CCCO2)Cc2ccccc2)cc1 (centres unmarked),7.44%
15,COc1ccc(N2CC(C(=O)Nc3nnc(SCc4ccccn4)s3)CC2=O)cc1 (centres unmarked),7.45%
16,O=C(c1ccccc1)N1N=C(c2ccccc2)CC1c1ccccc1 (centres unmarked),13.6%
17,CCOC(=O)C1=C(C)N(C)C(=O)NC1c1cc2c(cc1[N+](=O)[O-])OCO2 (centres unmarked),16.9%
18,C/C(=N\NC(=O)c1ccc(CN2CCOCC2)cc1)c1cccc([N+](=O)[O-])c1,9.6%
19,CC(C)C(=O)NNC(=O)CN1CCN(c2nc(-c3ccccc3)cs2)CC1,3.53%
20,Cc1cc(C)nc(/N=C2\NC(=O)CC(C(=O)O)N2c2ccc(Cl)cc2)n1 (centres unmarked),14.8%
21,COC(=O)COc1ccc(C(=O)OC)cc1,18.6%
22,CCc1c(C)nc(SCC(=O)CC(=O)OC(C)C)c(C#N)c1C,9.18%
23,COc1ccc(S(=O)(=O)N2CCN(Cc3cc(OC)c(O)c(OC)c3)CC2)cc1.O=C(O)C(=O)O,13.9%

row,SMILES,"hERG current change (%, negative = inhibition) at 1uM"
1,CCN(Cc1ccccc1)C(c1ccccn1)c1nnnn1C1CCCCC1 (centres unmarked),-7.86%
2,COc1c(N2CCN(C(=S)NC3CC4CCC3C4)C(C)C2)c(F)cc2c(=O)c(C(=O)O)cn(C3CC3)c12 (centres unmarked),3.97%
3,Cc1ccc(C(=O)OCC(=O)NCc2ccc(F)cc2)o1,17.5%
4,CC(=O)NC(CC(=O)OCC(=O)N1CCc2ccccc21)c1ccccc1 (centres unmarked),14.8%
5,CCCn1nnc(NC(=O)c2ccccc2Br)n1,16%
6,CCOc1ccc(NC(=O)CN(C)S(=O)(=O)c2ccc(-c3ccc(=O)[nH]n3)s2)cc1,8.62%
7,CC1CCc2nc3ccccc3c(C(=O)OCC(=O)NC3CCS(=O)(=O)C3)c2C1 (centres unmarked),13%
8,COc1ccc(N(C(=O)/C=C/c2ccc(OC)c(OC)c2)C2=CC3CCC(C2)N3C)cc1.Cl (centres unmarked),-42.8%
9,CCN(C(=O)COC(=O)c1cc(C)n(C2CC2)c1C)c1ccccc1,8.7%
10,COC(=O)c1[nH]c2ccc(Cl)cc2c1NC(=O)CN1CCC(C(N)=O)CC1,10.6%
11,CC(=O)C1=C(C)OC(N)=C(C#N)C1c1ccco1 (centres unmarked),11.5%
12,COc1ccc(OCCCC(=O)Nc2nc(C)c(C(C)=O)s2)cc1,10.2%
13,CCOC(=O)C1CCN(C(=O)c2cccnc2)CC1,8.25%
14,Br.CCc1ccc(C(=O)Cn2ccsc2=N)cc1,13.7%
15,CN(C)Cc1c(C(=O)N/N=C/c2cccs2)nnn1-c1nonc1N,5.63%
16,C=CCOC(=O)C1=C(C)OC(N)=C(C#N)C1c1c(C)nn(-c2ccccc2)c1Cl (centres unmarked),8.3%
17,Cc1cc(OCC(=O)c2ccc(F)cc2)ccc1N1C(=O)CCC1=O,12.7%
18,CC1=C(C(=O)Nc2ccccc2C(=O)NCc2ccccc2)SCCO1,16.5%
19,CS(=O)(=O)/C(C#N)=C\c1cnc(S(=O)(=O)c2ccccc2)s1,17.2%
20,COC(=O)c1ccc(CSc2nnc(Nc3ccc(C)cc3)s2)o1,13.2%
